Data taken from article PMC6919601, “Identification of Plasmodium dipeptidyl aminopeptidase allosteric inhibitors by high throughput screening” (PLoS ONE, 2019).
“And” between values parts separate entries of the source, which are not always exact repeats. Equal entries are not always repeated. Out of some 110,000 compounds screened, about 230 (0.21%) showed an effect of 50% or more. The list shows a part of the results.

What follows are compounds tested against DPAP1 (Plasmodium falciparum, UniProt Q8IIJ9) (assay: primary screen, percent inhibition; read by cleavage of a fluorogenic dipeptide substrate; higher = more effect of the substance).
Design: species or system P. falciparum D10 trophozoite lysates; single well
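Further: 30 min substrate incubation versus DMSO and 10 µM JCP410 controls.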

Chain of DPAP1 (Q8IIJ9 whole entry, looked up): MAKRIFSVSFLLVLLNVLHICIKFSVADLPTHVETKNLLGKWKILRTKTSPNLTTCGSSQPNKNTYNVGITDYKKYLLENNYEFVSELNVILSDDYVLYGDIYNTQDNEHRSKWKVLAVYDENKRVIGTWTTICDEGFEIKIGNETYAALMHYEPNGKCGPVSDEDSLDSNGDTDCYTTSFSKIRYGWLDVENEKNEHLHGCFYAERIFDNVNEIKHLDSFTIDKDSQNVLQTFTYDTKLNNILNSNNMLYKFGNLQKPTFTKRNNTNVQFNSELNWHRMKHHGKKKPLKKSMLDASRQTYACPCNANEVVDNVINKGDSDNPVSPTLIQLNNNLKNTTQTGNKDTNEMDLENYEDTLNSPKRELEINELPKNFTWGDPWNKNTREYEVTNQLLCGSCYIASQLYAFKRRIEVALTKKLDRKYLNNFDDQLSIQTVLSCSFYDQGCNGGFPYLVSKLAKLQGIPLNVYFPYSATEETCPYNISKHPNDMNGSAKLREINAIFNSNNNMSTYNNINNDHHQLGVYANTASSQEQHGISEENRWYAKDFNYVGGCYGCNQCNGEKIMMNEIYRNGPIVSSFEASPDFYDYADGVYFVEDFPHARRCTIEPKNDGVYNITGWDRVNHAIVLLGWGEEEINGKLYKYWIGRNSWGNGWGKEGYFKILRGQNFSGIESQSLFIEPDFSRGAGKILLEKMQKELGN

SMILES	% Inhibition @ 10 uM
N#Cc1c(N)c(C(=O)c2ccccc2)n2c1CCC2	-7.25%
Nc1ncn(CC(O)CO)c2nc(NCCO)nc1-2 (stereo not shown)	1.4%
O=C(O)C1C2CCC(C2)C1C(=O)NCCC1=CCCCC1 (stereo not shown)	1.96%
COc1ccc(F)cc1S(=O)(=O)N1CCC(C(N)=O)CC1	0.108%
COc1cc(NC(=O)c2ccc(-c3ccccc3)cc2)c(OC)cc1Cl	-4.94%
COc1cccc(NC(=O)C2CC(=O)N(C)/C(=N/c3cccc(F)c3)S2)c1 (stereo not shown)	1.52%
CCCn1c(CCCO)nc2ccccc21	3.96%
Nc1c2c(nc3ccn(Cc4ccccc4)c(=O)c13)CCCC2	-2.56%
COc1ccc(NC(=O)CN(CCc2ccccc2)S(C)(=O)=O)cc1Cl	-7.28%
COc1ccc(/C=C2\SC(c3ccc(C)cc3)=NC2=O)c(OC)c1OC	-1.96%
COc1cccc2c1Sc1ccc(Cl)cc1CC2N1CCNCC1 (stereo not shown)	-4.12%
CCCC(=O)Nc1ccc(Cl)c(NC(=O)COc2cc(C)cc(C)c2)c1	4.44%
Clc1ccc(CN2CCc3c([nH]c4ccccc34)C2)cc1	0.605%
CC1CCN(c2nc3c(c(=O)n(Cc4ccc(Cl)c(Cl)c4)c(=O)n3C)n2C)CC1	0.279%
O=c1c(NCCc2ccccc2)c(-c2ccccc2)c1=O	-5.61%
O=C(CCCOc1ccc(Cl)cc1Cl)Nc1ccccn1	-4.02%
CC(C)CC(NC(=O)c1ccc(NC(=O)N2CCN(c3ncccn3)CC2)cc1)C(=O)NCC#N (stereo not shown)	-7.36%
CC1CCN(S(=O)(=O)c2ccc(NS(=O)(=O)c3ccccc3)cc2)CC1	-3.26%
O=C1NC(=O)N(c2cccc(Cl)c2)C(=O)/C1=C\Nc1ccc(S(=O)(=O)CCO)cc1	4.32%
CN1CCN(C(=O)CN(c2ccccc2F)S(C)(=O)=O)CC1	-0.872%
Cc1[nH]c(-c2ccc(F)cc2)cc1C(=O)NC1CCCCCC1	3.09%
O=C(Cn1ncc2ccccc21)NCCCN1CCc2ccccc2C1	4.84%
O=C(Nc1ccc(S(=O)(=O)N2CCc3ccccc32)cc1)C1CC1	-2.19%
Cn1cc(S(=O)(=O)N2CCCC2)cc1C(=O)NCc1ccc2c(c1)OCO2	2.81%
O=C(Cn1ncc2c3ccccc3n(Cc3ccccc3F)c2c1=O)N1CCOCC1	1.8%

SMILES	% Inhibition @ 10 uM
COc1ccc(-c2nc(CSCC(=O)NCCN3CCCCC3C)c(C)o2)cc1OC (stereo not shown)	-2.85%
CCOC(=O)N1CCN(S(=O)(=O)c2ccc(OC)c3ccccc23)CC1	2.32%
COc1ccc(OCC(=O)Nc2ccc(Br)cc2C(=O)O)cc1	1.96%
CC1CCc2nc(N)c(C#N)c(-c3ccc(Br)s3)c2C1 (stereo not shown)	3.72%
Cc1ccc(OCCCn2ccnc2)cc1	-7.87%
CCCCN1CC(C(=O)NC(C)C)CC1=O (stereo not shown)	-1.79%
CCC1CCCCN1CCCNC(=O)Cn1nc(C)c2c(C)n(-c3ccccc3)nc2c1=O (stereo not shown)	-4.38%
O=C(Nc1sc2c(c1C(=O)Nc1ccccc1)CCC2)c1cccs1	-11.1%
CCCCN1C(=O)c2ccccc2C1C(=O)NC1CCCC1 (stereo not shown)	2.79%
O=C(CC(C(=O)O)c1ccccc1)Nc1cccnc1 (stereo not shown)	2.48%
CCOc1cc(-c2cc(N)n(S(=O)(=O)c3ccc(F)cc3)n2)cc(OCC)c1OCC	2.74%
COc1ccc(C2C(C#N)=C(N)OC3=C2C(=O)CC(c2ccc(C)cc2)C3)cc1 (stereo not shown)	4%
COc1ccc(CN2CCCCC2CO)cc1Br (stereo not shown)	2.65%
CCN(CC)CC#CCC(O)(c1ccccc1)C1CCCCC1 (stereo not shown)	2.4%
Clc1ccc(-c2cnc3ccccc3n2)cc1	4.57%
COc1ccccc1NC(=O)CSc1nc(N)c2c3c(sc2n1)COC(C(C)C)C3 (stereo not shown)	-0.0938%
CCc1ccc(NC2Nc3cc(C)nn3S2)cc1 (stereo not shown)	-4.05%
Cc1ccc(-n2nc3c(N4CCCC(C(=O)NCCc5cccs5)C4)nnc(C)c3c2C)cc1 (stereo not shown)	3.42%
O=C(Nc1ccccc1C(=O)NCc1ccccc1)c1ccco1	-15.1%
COc1ccccc1C(O)(c1ccccc1)C(CN1CCOCC1)c1ccccc1 (stereo not shown)	-0.551%
Cc1cccc(CNC(=O)c2ccc3c(c2)c(C)c(C)n3C)c1	-7.64%
O=C(O)c1nc(-c2ccccc2)cc(-c2ccccc2)n1	-5.62%
CCOC(=O)C1=C(CN2CCC(N3CCCCC3)CC2)NC(=O)NC1c1ccc(C)cc1 (stereo not shown)	-8.28%
COc1ccc(C(=O)N2CCN(Cc3ccc(SC)cc3)CC2)cc1OC	4%
Cc1cc(C)n(-c2nnc(C)n2/N=C/c2ccc3ccccc3c2)n1	-4.51%

SMILES	% Inhibition @ 10 uM
O=C(CNS(=O)(=O)c1cccs1)NC(c1ccccc1)c1ccccc1	7.57%
COCCN1C(=S)NC2c3ccccc3OC1(C)C2C(=O)N(C)C (stereo not shown)	6.2%
CCOC(=O)Nc1oc2ccccc2c(=O)c1CN1CCOCC1	-5.51%
C=CCn1c(-c2nonc2NC(=O)CC)nc2ccccc21	1.72%
COc1ccccc1-c1cc(C(=O)Nc2sc3c(c2C#N)CCC3)no1	2.01%
COc1ccc(NC(=O)CN(c2cc(Cl)ccc2C)S(C)(=O)=O)c(OC)c1	-9.24%
Cc1c2cnn(CC(=O)NCCCN3C(C)CCCC3C)c(=O)c2c(C)n1Cc1ccc(F)cc1 (stereo not shown)	-0.447%
COc1ccc(NC(=O)c2c(NC(C)=O)sc3c2CCCCC3)cc1	20.1%
CCN(CC)CCNC(=O)C(=O)NC(C)C(c1cccs1)N1CCN(C)CC1 (stereo not shown)	5.53%
O=C(Nc1cccc(C(F)(F)F)c1)c1ccccc1Cl	-4.31%
Cc1onc(-c2ccccc2Cl)c1C(=O)Nc1nnc(C2CCCCC2)s1	-5.2%
CCC[C@H](NC(=O)C1(NC(=O)c2cccc(N(C)C)c2)CCCCC1)C(=O)c1nc2ccccc2o1	3.19%
CS(=O)(=O)N(CC(=O)Nc1ccccc1)c1cccc(Br)c1	-9.68%
COc1ccc(C(=O)C2=C(O)C(=O)N(CCc3c(C)[nH]c4ccccc34)C2c2ccccc2F)cc1 (stereo not shown)	2.57%
CC(C)OCCCNC(=O)CCc1nnc2n(CCc3ccccc3)c(=O)c3ccccc3n12	-4.21%
COc1ccccc1C(=O)N(Cc1ccco1)C1CCS(=O)(=O)C1 (stereo not shown)	-6.5%
CC1(C)CC(=O)C(/C=N/c2cccnc2/N=C/C2=C(O)CC(C)(C)CC2=O)=C(O)C1	2.03%
COc1ccc2nc3oc(C(=O)NCCCN4CCC(Cc5ccccc5)CC4)cc3cc2c1	3.54%
CCc1c(C)sc(NC(=O)CCc2ccc(OC)cc2)c1C(N)=O	2.76%
O=C1Nc2cc(Cl)ccc2Sc2ccccc21	2.5%
c1ccc(OCCCCCCN2CCOCC2)cc1	-4.21%
COCCCNC(=O)C(C)Oc1ccc(Cl)cc1Cl (stereo not shown)	4.56%
COc1ccc(Br)cc1CNc1ccc(O)cc1	-1.04%
O=C(C1CCN(c2nnc(-n3cccc3)s2)CC1)N1CCCCCC1	4.64%
COc1ccc(OCC(=O)Nc2ccc(Oc3ccccc3)cc2)cc1	-3.58%

SMILES	% Inhibition @ 10 uM
Cc1ccc(C)n1-c1nnc(N2CCC(C(=O)NC3CCCC(C)C3C)CC2)s1 (stereo not shown)	-0.522%
CC(=O)Nc1ccc(N/C=C(/C#N)c2nc(-c3ccc(Cl)cc3Cl)cs2)cc1	2.01%
O=c1oc2c3c(ccc2c2ccccc12)OCN(CCc1ccccc1F)C3	2.54%
CC(C)(C)c1ccc(C(=O)N(Cc2cccs2)C2CCS(=O)(=O)C2)cc1 (stereo not shown)	-3.47%
O=C(c1ccc(C(F)(F)F)cc1)N1CCCCC1	-1.24%
COc1ccc(C(=O)Nc2nc(-c3nnn(-c4ccccc4F)c3C)ns2)cc1	-5.13%
COc1ccc(C2NC(S)=NC(C)=C2C(=O)Nc2ccc(C)cc2)cc1 (stereo not shown)	2.78%
Cc1nn(C)c2c1c(-c1ccccc1)cc(=O)n2CC(=O)c1c(C)n(C)c2ccccc12	6.2%
O=C(c1nn2c(c1Cl)NC(c1cccs1)CC2C(F)(F)F)N1CCCCCC1 (stereo not shown)	-1.44%
COc1cc2c(cc1O)CCNC2C (stereo not shown)	0.968% and 5.53%
CC(c1ccccc1)C1CC(=O)N(c2ccc3ccccc3n2)C1=O (stereo not shown)	1.42%
COc1ccccc1CNC(=O)CN1C(=O)C(c2ccccc2)Oc2cccnc21 (stereo not shown)	-5.99%
COc1cccc(C(=O)Nc2ccc(S(=O)(=O)Nc3nccnc3OC)cc2)c1	11.5%
CC(C)CN(CC(C)C)S(=O)(=O)c1ccc(CN2C(=O)c3cccnc3C2=O)s1	-6.31%
O=C(NCCN1CCCC1)c1cccc(Br)c1	-4.12%
COc1ccc(-c2cc(C(F)(F)F)n3nc(C(=O)N4CCN5CCCC5C4)cc3n2)cc1OC (stereo not shown)	6.52%
COc1ccc(C(NC(=O)Cc2ccccc2)c2ccc3cccnc3c2O)cc1OC (stereo not shown)	3.04%
CC(C)(C)c1ccc(C2c3c(-c4ccccc4O)n[nH]c3C(=O)N2CCO)cc1 (stereo not shown)	3.62%
COC(=O)c1cc(-c2ccc(OC)cc2)nc2ccc(Cl)cc12	-4.93%
CCN1CCN(C(=O)c2cc3cc4ccc(OC)cc4nc3s2)CC1	-0.984%
Cc1nc2sccn2c(=O)c1S(=O)(=O)NCC1CCN(Cc2ccccc2Cl)CC1	-0.256%
CCN(CC)S(=O)(=O)N(CC(=O)O)CC(=O)O	3.04%
COC(=O)c1cnn(-c2ccc(C)cc2)c1-n1cccc1	4.79%
CSc1nc2n(n1)C(c1ccc(F)c(Br)c1)C1=C(O)CC(C)(C)CC1=N2 (stereo not shown)	-1.62%
CCOc1ccc(-c2cc(C(=O)N3CCN(c4ccccn4)CC3)c3ccccc3n2)cc1	-0.733%
